Assay results reported in PubChem BioAssay AID1347073 (National Center for Advancing Translational Sciences (NCATS), 2019).
Screen size: about 45,000 compounds; about 200 (0.44%) were called active. Not shown: some 7% with an inconclusive outcome. Calls come from the whole dose curve; as a rule, active = well fitted activation curve with a large enough effect; inconclusive = small, poorly fitted or top-dose-only effect; inactive = no such curve, though single readings can be large or run the other way. The list shows a part of the results.

assay: qHTS of TDP-43 Inhibitors: NCGC Sytravon Library Screen; details: yeast TDP-43 toxicity rescue, BacTiter-Glo growth, 24 h; series mostly up to 46.1 µM; growth rescue (activation): at the top concentration; note: nearly all actives have a fitted effect of over 55% in size; for growth rescue (activation): 0% is about no effect
In short: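 TDP-43-expressing yeast, pregrown in raffinose, seeded at OD600 0.02 in galactose medium with compound for 24 hr at 30 deg C. Growth read by BacTiter-Glo luminescence, so rescue of toxicity appears as activation.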
Potency is the fitted concentration of half-maximal effect.

Q: With `CC(O)CNc1nc2c(c(=O)n(Cc3ccc(Cl)cc3)c(=O)n2C)n1C` (stereo unspecified) as the compound, how does the “growth rescue (activation)” value read?
A: inactive: 11.6%

Q: For `C[N+](C)(CCOc1ccccc1)Cc1ccccc1` (tested in a mixture with another compound), which “growth rescue (activation)” value is on record?
A: inactive: 25.9%

Q: Which “growth rescue (activation)” value does the source give for `Cc1ccccc1OCC(=O)OCC(=O)Nc1ccc(S(N)(=O)=O)cc1` here?
A: inactive: 11.4%

Q: With `COc1ccc(C(=O)Nc2cc(C)c(NC(=O)c3ccccn3)cn2)cc1` as the compound, how does the “growth rescue (activation)” value read?
A: inactive: 6.04%

Q: For `CCCc1ccc(-c2cc(NC(=O)CSc3nnc(N)s3)n(-c3ccccc3)n2)cc1`, which “growth rescue (activation)” value is on record?
A: inactive: 5.49%

Q: Which “growth rescue (activation)” value does the source give for `COc1ccc(N=C2CC(C)(C)CC(=O)/C2=C(/O)c2ccccc2)cc1` here?
A: inactive: 27.9%

Q: With `O=C(Nc1ccc(-n2cccn2)cc1)C1CCN(Cc2ccccn2)CC1` as the compound, how does the “growth rescue (activation)” value read?
A: inactive: -3.27%

Q: For `CCOP(=O)(c1ccc(N(C)C)cc1)C(O)c1ccc(C)cc1` (stereo unspecified), which “growth rescue (activation)” value is on record?
A: inactive: 12.9%

Q: With `COc1ccc(OC(F)(F)F)cc1CC1(C)C(=O)Nc2cccc(Cl)c21` (stereo unspecified) as the compound, how does the “growth rescue (activation)” value read?
A: inactive: -13.2%

Q: For `CCc1nc2ccc(C(=O)Nc3cccc(NS(C)(=O)=O)c3)cn2c1N(CC)Cc1cccc(Br)c1`, which “growth rescue (activation)” value is on record?
A: inactive: 1.95%

Q: For `C/C(=C\c1ccccc1)C(=O)Nc1nc2ccc([N+](=O)[O-])cc2s1`, which “growth rescue (activation)” value is on record?
A: inactive: 21.5%

Q: For `COc1ccc(CNC(=O)CN(C(=O)CCC(=O)Nc2ccccn2)c2cccc(C)c2C)cc1`, which “growth rescue (activation)” value is on record?
A: inactive: -15.7%

Q: For `CN(C)C(=O)c1ccc2c(c1[N+](=O)[O-])C(=O)c1ccccc1C2=O`, which Potency is on record?
A: active: 10 µM

Q: For `CCOC(=O)Cn1c(O)c(N=NC(=O)OC)c2ccccc21`, which “growth rescue (activation)” value is on record?
A: inactive: 8.44%

Q: Which “growth rescue (activation)” value does the source give for `CCC(CC)N1CCN(C(=O)c2cccc(Cl)c2)CC1` here?
A: inactive: -4.09%

Q: Which “growth rescue (activation)” value does the source give for `C/C(CC(=O)Nc1ccc([N+](=O)[O-])cc1)=N/NC(=O)C1C2CCCCC21` (stereo unspecified) here?
A: inactive: 25.5%

Q: With `COc1ccc(CNC(=O)CSC(=S)N2CCCC2)cc1` as the compound, how does the “growth rescue (activation)” value read?
A: inactive: -3.37%

Q: Which “growth rescue (activation)” value does the source give for `CCOC(=O)C1=C(C)NC(=S)NC1c1ccc(OCC(=O)N2CCCCC2)cc1` (stereo unspecified) here?
A: inactive: -3.75%

Q: For `CN(C)C(CNS(=O)(=O)c1cc([N+](=O)[O-])ccc1Cl)c1ccco1` (stereo unspecified), which “growth rescue (activation)” value is on record?
A: inactive: -4.74%

Q: With `Cc1ccc(CN2CCN(Cc3ccncc3)CC2CCO)o1` (stereo unspecified) as the compound, how does the “growth rescue (activation)” value read?
A: inactive: -11.9%

Q: Which “growth rescue (activation)” value does the source give for `COc1ccc(-c2csc(NC(=O)CSc3nnc(Nc4ccccc4C)s3)n2)cc1` here?
A: inactive: 2.17%

Q: With `CSc1nc2ccc(NC(=O)c3ccc(=O)[nH]c3)cc2s1` as the compound, how does the “growth rescue (activation)” value read?
A: inactive: -8.83%

Q: With `O=C(O)c1ccc(-c2nc(-c3ccccc3)c(-c3cccs3)[nH]2)cc1` as the compound, how does the “growth rescue (activation)” value read?
A: inactive: 4.21%

Q: Which “growth rescue (activation)” value does the source give for `CCOc1cc2c(cc1/C=C(/C#N)c1ccc(C(=O)O)cc1)OCO2` here?
A: inactive: 22.2%

Q: With `CCN(CC)S(=O)(=O)c1ccc(N2CCCC2)c(NS(=O)(=O)c2ccc([N+](=O)[O-])cc2)c1` as the compound, how does the “growth rescue (activation)” value read?
A: inactive: 12.6%

Q: With `Cc1ccc(C(=O)NCCNC(=O)c2ccccn2)cc1` as the compound, how does the “growth rescue (activation)” value read?
A: inactive: -0.352%

Q: With `COc1cccc(NC(=O)Cn2c(CCC(=O)O)ccc2-c2ccccc2)c1` as the compound, how does the “growth rescue (activation)” value read?
A: inactive: 7.97%

Q: Which “growth rescue (activation)” value does the source give for `COc1ccccc1CC(Cc1nc2ccccc2[nH]1)c1nc2ccccc2[nH]1` (stereo unspecified) here?
A: inactive: 3.89%

Q: Which “growth rescue (activation)” value does the source give for `CN(C)c1ccc(C2(c3ccc(N(C)C)cc3)OC(=O)c3cc(N)ccc32)cc1` here?
A: inactive: 0.696%

Q: For `CCOc1ccc(S(=O)(=O)NCCC(=O)OCC(=O)N2CC(=O)Nc3ccccc32)cc1`, which “growth rescue (activation)” value is on record?
A: inactive: 5.3%

Q: Which “growth rescue (activation)” value does the source give for `Cc1ccc(CNc2ccc(N3C(=O)CCCC3=O)cc2[N+](=O)[O-])cc1` here?
A: inactive: 8.95%

Q: Which “growth rescue (activation)” value does the source give for `O=C(NCc1cccs1)c1ccc2sc(C3=C[C@@H](O)[C@@H](O)[C@@H](CO)O3)nc2c1` here?
A: inactive: -10.4%

Q: Which “growth rescue (activation)” value does the source give for `COc1cc([N+](=O)[O-])ccc1NC(=O)COC(=O)c1ccc(NC(N)=O)cc1` here?
A: inactive: 5.41%

Q: With `O=C(Cc1ccccc1)Nc1ccc(S(=O)(=O)N2CCCC2)cc1` as the compound, how does the “growth rescue (activation)” value read?
A: inactive: 15.8%

Q: For `O=c1[nH]snc1N1CCOCC1`, which “growth rescue (activation)” value is on record?
A: inactive: 12.8%

Q: For `O=C(O)CCSc1nnc(SCC(=O)NC2CCS(=O)(=O)C2)s1` (stereo unspecified), which “growth rescue (activation)” value is on record?
A: inactive: 17.1%

Q: With `COc1cc(NC(=S)Nc2cccnc2)cc(OC)c1` as the compound, how does the “growth rescue (activation)” value read?
A: inactive: 11.3%

Q: For `Cc1ccc(CSC2=Nc3ccccc3C3=NC(CC(=O)NC4CCCCC4)C(=O)N23)cc1` (stereo unspecified), which “growth rescue (activation)” value is on record?
A: inactive: 7.28%

Q: With `CCNC(=O)C1CCCN(C(=O)c2ccccc2OC(F)(F)F)CC1` (stereo unspecified) as the compound, how does the “growth rescue (activation)” value read?
A: inactive: -7.81%

Q: Which “growth rescue (activation)” value does the source give for `Nc1ccc(S(=O)(=O)Nc2nccc(/C=C/c3ccc([N+](=O)[O-])cc3)n2)cc1` here?
A: inactive: -6.41%

Q: With `Cc1c(C(=O)N2CCCCC2)oc2ccccc12` as the compound, how does the “growth rescue (activation)” value read?
A: inactive: 15.9%

Q: For `COc1ccccc1N1CCN(C(=O)c2cc(-c3ccc(F)cc3)on2)CC1`, which “growth rescue (activation)” value is on record?
A: inactive: 10.7%

Q: For `CS(=O)(=O)c1ccccc1C(=O)N1CCN(Cc2ccccc2)CC1`, which “growth rescue (activation)” value is on record?
A: inactive: -16.2%

Q: With `CCN(CC)C(=O)c1c(-c2ccccc2)oc2ccc(O)cc12` as the compound, how does the “growth rescue (activation)” value read?
A: inactive: 16.1%

Q: For `CS(=O)(=O)N1CCN(c2ccc(C(=O)N3CCOCC3)cc2[N+](=O)[O-])CC1`, which “growth rescue (activation)” value is on record?
A: inactive: -0.173%

Q: Which “growth rescue (activation)” value does the source give for `CSc1ncccc1C(=O)N1CCN(S(=O)(=O)c2cc(C)ccc2C)CC1` here?
A: inactive: 8.28%

Q: Which “growth rescue (activation)” value does the source give for `COc1ccc(N2CCN(C(=O)[C@H](C)N3C(=O)C4CC=CCC4C3=O)CC2)cc1` (stereo partly specified) here?
A: inactive: 4.66%

Q: For `COc1ccc(-c2ccc(CCC(=O)O)n2CC(=O)Nc2ccccc2C)cc1`, which “growth rescue (activation)” value is on record?
A: inactive: -3.12%

Q: For `COc1cc(C=NNC(=O)c2ccc(NS(=O)(=O)c3cccs3)cc2)cc(Br)c1O`, which “growth rescue (activation)” value is on record?
A: inactive: 4.01%

Q: With `COc1ccc(N/C=C/c2nc(SC)nnc2C)cc1` as the compound, how does the “growth rescue (activation)” value read?
A: inactive: 2.66%

Q: Which “growth rescue (activation)” value does the source give for `Cc1ccc(NC(=O)C2CCC(N3C(=O)C4CCCCC4C3=O)CC2)cc1` (stereo unspecified) here?
A: inactive: 4.93%

Q: For `CC1(C)Cc2c(c(-c3ccco3)[nH]c(=O)c2C#N)CS1`, which “growth rescue (activation)” value is on record?
A: inactive: 20.7%

Q: Which “growth rescue (activation)” value does the source give for `Cc1c(C(=O)NCCSCc2ccco2)cccc1[N+](=O)[O-]` here?
A: inactive: 18.8%

Q: With `CC(C)OC(=O)/C(C#N)=C/c1cn(C)c2ccccc12` as the compound, how does the “growth rescue (activation)” value read?
A: inactive: 17.3%

Q: For `CCOc1cc(NC(=O)C2CC2)c(OCC)cc1NC(=O)CCn1nnc2ccccc21`, which “growth rescue (activation)” value is on record?
A: inactive: 4.99%

Q: Which “growth rescue (activation)” value does the source give for `CCN(C(=O)CSc1cc(C)c2ccccc2n1)c1c(N)n(Cc2ccccc2)c(=O)[nH]c1=O` here?
A: inactive: 8.11%

Q: With `Cc1cc(NC(=O)c2cccc(S(=O)(=O)N3CCCCC3)c2)no1` as the compound, how does the “growth rescue (activation)” value read?
A: inactive: 9.25%

Q: Which “growth rescue (activation)” value does the source give for `O=C(CNC(=O)C1CCCCC1)OCc1cc(=O)oc2ccc3ccccc3c12` here?
A: inactive: 9.72%

Q: With `Cc1cc(NC(=O)CSc2nnnn2-c2ccc(C(C)C)cc2)no1` as the compound, how does the “growth rescue (activation)” value read?
A: inactive: 13.8%

Q: With `CCCn1nnnc1SCC(=O)NC1CCCC1` as the compound, how does the “growth rescue (activation)” value read?
A: inactive: 14.2%

Q: For `O=C(O)CSc1ncnc2c1oc1ccccc12`, which “growth rescue (activation)” value is on record?
A: inactive: -9.84%

Q: For `CC(=O)c1c(C)[nH]c(C(=O)Nc2nc(-c3ccccc3)c(C)s2)c1C`, which “growth rescue (activation)” value is on record?
A: inactive: -6.05%

Q: For `CCCS(=O)(=O)NC(=O)C1(C)CCCN(C(=O)c2ccc(C(F)(F)F)nc2C)C1` (stereo unspecified), which “growth rescue (activation)” value is on record?
A: inactive: -2.55%

Q: For `CC(C)=CC(=O)N1CCC(N2CCC(C(=O)NCC3CCCO3)CC2)CC1` (stereo unspecified), which “growth rescue (activation)” value is on record?
A: inactive: 0.268%

Q: Which “growth rescue (activation)” value does the source give for `O=C1NCCN(Cc2cccc(Oc3ccccc3)c2)C1CC(=O)N1CCCO1` (stereo unspecified) here?
A: inactive: 7.9%

Q: Which “growth rescue (activation)” value does the source give for `COc1ccc(NC(=S)NC(=NS(=O)(=O)c2ccc(Cl)cc2)c2ccccc2)cc1` here?
A: inactive: 4.94%
